Experimental data as given in patent US20160137740A1 (AstraZeneca / MedImmune, published 2016).

Legend:
[1] = biological target: T1, Human TNFRSF1β (TNFR2) expressed on HEK293 cells (human, UniProt P20333 23-461); test: flow cytometry on transfected HEK293 cells, 1 µg/mL
T1 construct: whole, on cells; also called TNFRSF1B; CD120b
T1 sequence (looked up): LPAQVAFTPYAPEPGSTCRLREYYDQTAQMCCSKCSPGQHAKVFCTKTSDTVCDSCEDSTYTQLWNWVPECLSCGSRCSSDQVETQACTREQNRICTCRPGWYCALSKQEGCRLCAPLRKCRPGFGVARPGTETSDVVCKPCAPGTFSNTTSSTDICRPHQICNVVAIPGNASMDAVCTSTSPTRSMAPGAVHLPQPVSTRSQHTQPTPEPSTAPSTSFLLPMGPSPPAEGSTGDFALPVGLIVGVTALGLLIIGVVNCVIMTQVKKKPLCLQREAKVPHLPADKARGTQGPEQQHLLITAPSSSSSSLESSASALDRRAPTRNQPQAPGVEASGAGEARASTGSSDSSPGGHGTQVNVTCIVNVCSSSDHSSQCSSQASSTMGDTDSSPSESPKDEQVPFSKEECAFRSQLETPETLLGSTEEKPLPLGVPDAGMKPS
Text: cDNA constructs capable of directing the expression of individual TNFRSF members, when transfected into mammalian cells, were obtained from Origene Technologies, Rockville, Md. These cDNA constructs were amplified and purified by the Protein Sciences group at MedImmune in Gaithersburg, Md. for use in transient transfections. […] Forty-eight hours post transfection, cells were removed from tissue culture plates by trypsinization. […] Cells were then suspended in cold FACS buffer (PBS+2% FBS) and plated into 96 well non-tissue culture-treated plates for binding studies with TNFRSF member-specific mAbs (Table 3-3) and OX40mAb24.
For binding of antibodies or OX40mAb24, HEK cells were pelleted, FACS buffer removed, and cells suspended in FACS buffer containing 2 μg/mL propidium iodide (PI) and either a fluorochrome-labeled mAb, specific for the transfected TNFRSF member, at a concentration recommended by the manufacturer or with OX40mAb24 at a concentration of 1 μg/mL. For binding controls, cells were separately incubated with fluorochrome-labeled isotype control antibodies. Cells were incubated with antibodies for 1 hour at 4° C. in the dark. Thereafter, cells incubated with fluorochrome-labeled monoclonal antibodies were washed in cold FACS buffer and then binding events collected and analyzed by flow cytometry using an LSRII flow cytometer (BD Biosciences, San Jose, Calif.) and FlowJo software, as described in Section 3.2.3. Cells incubated with OX40mAb24 were washed in ice cold FACS buffer and then suspended 25 μg/mL of Alexa Fluor® 647 goat antihuman IgG (H+L) secondary antibody and incubated for a further 30 minutes at 4° C. in the dark. For a secondary antibody binding control cells were incubated in the absence of OX40mAb24, but in the presence of fluorochrome-labeled secondary antibody alone. Thereafter, cells were washed and suspended in cold FACS buffer for analysis on an LSRII flow cytometer.

Human OX40 [2] = biological target: T2, Human OX40 (human, UniProt P43489 29-277); test: cell-based or functional assay
T2 sequence: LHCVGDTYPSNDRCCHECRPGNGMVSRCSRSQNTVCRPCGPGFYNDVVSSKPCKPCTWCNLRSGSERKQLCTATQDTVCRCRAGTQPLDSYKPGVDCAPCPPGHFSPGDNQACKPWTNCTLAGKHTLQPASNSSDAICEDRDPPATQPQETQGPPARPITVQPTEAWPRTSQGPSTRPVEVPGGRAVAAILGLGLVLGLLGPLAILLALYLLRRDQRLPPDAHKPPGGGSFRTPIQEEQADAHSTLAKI

Human OX40 [3] = biological target: T2, Human OX40; test: flow cytometry on human OX40-overexpressing Jurkat NFkB-luciferase clone 64 cells, AlexaFluor 647 anti-human IgG secondary [panel A]
Procedure: Human OX40-overexpressing Jurkat NFκB-luciferase clone 64 cells were cultured in complete RPMI+10% FBS prior to binding experiments, without the need for activation.
(§1) OX40mAb24 (10 μg/mL) or 9B12 (10 μg/mL) was diluted over a 17 point 2-fold dilution series. OX40mAb24 was added to 100,000 cells (activated primary CD4⁺ T cells or human OX40-overexpressing Jurkat NFkB-luciferase clone 64 cells) per well and incubated for one hour at 4° C. For background binding subtraction, cells were incubated in the presence of secondary antibody alone. […] Following secondary antibody incubation, cells were washed and suspended in 100 μL FACS buffer for flow cytometry analysis on a BD LSRII flow cytometer as described below.

Human OX40 [4] = biological target: T2, Human OX40; test: flow cytometry, equilibrium binding to activated primary human CD4+ T cells; apparent Kd, mean of 6 donors (StdErr)
Procedure: as §1

Human OX40 [5] = biological target: T2, Human OX40; test: cell-based or functional assay; remark: listed apart in the source
[6] = biological target: T3, KO_CRD3 (human OX40 aa 108 to 146 replaced with the mouse counterparts) (human; mouse, UniProt P43489 29-277); test: flow cytometry, transfected 293F cells, column KO_CRD3
T3 construct: Chimeric variant with a transmembrane domain, transient on 293F cells
T3 chain: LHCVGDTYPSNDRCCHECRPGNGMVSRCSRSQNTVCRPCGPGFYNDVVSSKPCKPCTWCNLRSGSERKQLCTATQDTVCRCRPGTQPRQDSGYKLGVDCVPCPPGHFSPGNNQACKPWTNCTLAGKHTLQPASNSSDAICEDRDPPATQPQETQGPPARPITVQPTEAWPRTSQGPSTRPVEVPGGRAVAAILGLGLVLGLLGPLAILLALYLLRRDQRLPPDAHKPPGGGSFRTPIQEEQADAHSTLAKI

Human OX40 [7] = biological target: T2, Human OX40; test: cell-based or functional assay; remark: listed apart in the source

B1: OX40mAb24 (antibody, human IgG1, kappa)
heavy: QVQLQESGPGLVKPSQTLSLTCAVYGGSFSSGYWNWIRKHPGKGLEYIGYISYNGITYHNPSLKSRITINRDTSKNQYSLQLNSVTPEDTAVYYCARYKYDYDGGHAMDYWGQGTLVTVSSASTKGPSVFPLAPSSKSTSGGTAALGCLVKDYFPEPVTVSWNSGALTSGVHTFPAVLQSSGLYSLSSVVTVPSSSLGTQTYICNVNHKPSNTKVDKRV[skipping human IgG1 Fc]
light: DIQMTQSPSSLSASVGDRVTITCRASQDISNYLNWYQQKPGKAPKLLIYYTSKLHSGVPSRFSGSGSGTDYTLTISSLQPEDFATYYCQQGSALPWTFGQGTKVEIKRTVAAPSVFIFPPSDEQLKSGTASVVCLLNNFYPREAKVQWKVDNALQSGNSQESVTEQDSKDSTYSLSSTLTLSKADYEKHKVYACEVTHQGLSSPVTKSFNRGEC
notes: Humanized from 9B12; human IgG1 kappa; also called humanized anti-human OX40 IgG1κ monoclonal antibody
[1]
  ratio of MFI to secondary antibody alone: 1 fold
Human OX40 [2]
  EC50, TNFα release, donor 645: 0.0541 nM
Human OX40 [3]
  EC50 (read off the curve): ~0.5 nM
Human OX40 [4]
  Kd: 0.312 nM
Human OX40 [5]
  EC50, IL5 release, donor 367: 0.0467 nM
  EC50, IL5 release, donor 651: 0.0959 nM
  EC50, IL5 release, donor 661: 0.069 nM
[6]
  binding result: no binding (tested: 1 µg/mL)
Human OX40 [7]
  EC50, NFκB-luciferase 2-cell assay, exp 1, Raji: 1.14 nM
  EC50, NFκB-luciferase 2-cell assay, exp 2, CD32A-expressing HEK: 0.437 nM
  EC50, NFκB-luciferase 2-cell assay, exp 3, CD32A-expressing HEK: 0.322 nM
  EC50, NFκB-luciferase 2-cell assay, exp 4, Raji: 1.04 nM
  EC50, NFκB-luciferase 2-cell assay, exp 5, CD32B-expressing HEK: 0.27 nM
  EC50, NFκB-luciferase 2-cell assay, exp 6, Raji: 0.796 nM
  EC50, NFκB-luciferase 2-cell assay, exp 7, CD32B-expressing HEK: 0.899 nM
  EC50, NFκB-luciferase 2-cell assay, exp 8, CD32B-expressing HEK: 0.671 nM
  EC50, NFκB-luciferase 2-cell assay, exp 9, Raji: 1.32 nM
  EC50, NFκB-luciferase 2-cell assay, exp 10, Raji: 1.26 nM
  EC50, NFκB-luciferase 2-cell assay, exp 11, CD32B-expressing HEK: 0.7 nM
  EC50, NFκB-luciferase 2-cell assay, exp 12, CD45+ cells, NSCLC: 0.0816 nM
  EC50, NFκB-luciferase 2-cell assay, exp 13, CD45+ cells, RCC: 0.337 nM
  EC50, NFκB-luciferase 2-cell assay, exp 14, CD45+ cells, NSCLC: 0.772 nM
  EC50, NFκB-luciferase 2-cell assay, exp 15, CD45+ cells, RCC: 1.41 nM
  EC50, NFκB-luciferase 2-cell assay, exp 16, CD32A-expressing HEK: 0.553 nM
